PubChem BioAssay AID1460 (National Center for Advancing Translational Sciences (NCATS), 2008)
The campaign covered roughly 270,000 compounds. About 5,800 (2.1%) were called active. Inconclusive results, whose numbers are uncertain, are shown with a selection of clear calls. The call rests on the fitted dose curve; in most records, active means well fitted inhibition curve with a large enough effect; inconclusive means small, poorly fitted or top-dose-only effect; inactive means flat fitted curve, though single readings scatter. A potency beside an inconclusive call is a rough fit, not a confirmed value.

molecular target: Microtubule-associated protein tau (Homo sapiens) (UniProt P10636); assay: qHTS for Inhibitors of Tau Fibril Formation, Thioflavin T Binding; details: recombinant tau K18 P301L, heparin-induced fibrillization, ThT fluorescence; series mostly up to 57.4 µM; activity, negative = inhibition: at the top concentration; further: nearly all actives have a fitted effect of over 55% in size
Sequence of UniProt P10636 (P10636 whole entry, looked up): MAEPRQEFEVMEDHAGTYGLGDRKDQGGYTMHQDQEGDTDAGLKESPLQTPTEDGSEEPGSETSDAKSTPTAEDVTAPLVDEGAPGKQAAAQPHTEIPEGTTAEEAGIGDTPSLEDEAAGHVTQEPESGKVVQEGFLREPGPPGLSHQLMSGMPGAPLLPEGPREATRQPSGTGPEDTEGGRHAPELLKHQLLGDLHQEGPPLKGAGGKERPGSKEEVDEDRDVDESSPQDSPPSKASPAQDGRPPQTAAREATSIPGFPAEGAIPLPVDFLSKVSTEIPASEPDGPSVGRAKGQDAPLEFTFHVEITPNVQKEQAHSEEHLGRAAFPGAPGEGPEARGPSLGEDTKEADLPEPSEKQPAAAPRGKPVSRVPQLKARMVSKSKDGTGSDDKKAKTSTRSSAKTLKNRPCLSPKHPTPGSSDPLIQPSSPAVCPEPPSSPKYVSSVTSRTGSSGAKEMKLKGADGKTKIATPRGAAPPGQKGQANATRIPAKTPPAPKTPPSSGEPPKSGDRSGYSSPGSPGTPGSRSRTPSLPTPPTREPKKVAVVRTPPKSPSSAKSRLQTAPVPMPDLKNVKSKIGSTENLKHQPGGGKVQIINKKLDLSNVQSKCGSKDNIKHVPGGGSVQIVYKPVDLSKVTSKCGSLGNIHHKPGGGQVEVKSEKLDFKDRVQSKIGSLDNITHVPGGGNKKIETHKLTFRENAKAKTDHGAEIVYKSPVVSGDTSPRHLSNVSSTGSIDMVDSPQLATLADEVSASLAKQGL
Outline: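 Using a mix of unlabeled (15 uM) and Alexa 594-labeled (0.24 uM) tau K18 P301L, heparin-triggered fibrillization over 6 hr at 37 C was scored by ThT fluorescence.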
On the % scale 0 is the no-effect control and ±100 the full control effect; potency means the concentration at half of the fitted maximal effect; tags describe the fitted curve by direction and shape.

| Structure (SMILES) | Potency | activity, negative = inhibition |
| --- | --- | --- |
| COc1ccc(-c2cn3nc(SCC(=O)Nc4ccc(C)c(Cl)c4)ccc3n2)cc1 | inconclusive: 2.82 µM [inhibitor, full curve] |  |
| COc1ccc(CCNC(=O)CCn2c(=O)c3ccccc3n(CC(=O)Nc3ccc(C)cc3C)c2=O)cc1OC |  | inactive: -19.1% |
| COc1ccccc1NC(=O)C1=C(C)Nc2nc(SCc3ccccc3)nn2C1c1cccnc1 (centres undefined) |  | inactive: -11.7% |
| CCOC(=O)c1cc(C#N)c(SCC(=O)c2cc(C#N)c(SC)nc2C)[nH]c1=O | inconclusive: 6.31 µM [inhibitor, partial curve] |  |
| Cc1ccc(-c2csc(NC(=O)CSc3nc4ccccc4c(=O)n3CCCN(C)C)n2)cc1 | inconclusive: 44.7 µM [inhibitor, single point] |  |
| COc1ccc2nc(/C(C#N)=C\c3ccc(Oc4ccc([N+](=O)[O-])cn4)cc3)[nH]c2c1 | active: 5.01 µM |  |
| CC1CCN(c2oc(/C=C/c3ccc(F)cc3)nc2C#N)CC1 | inconclusive: 8.91 µM [inhibitor, partial curve] |  |
| CC(=O)N(/N=C1\Sc2ccccc2C1=O)c1ccccc1 | inconclusive: 22.4 µM [inhibitor, partial curve] |  |
| COc1cccc(-c2nc(CS(=O)(=O)CC(=O)Nc3cccc(C)c3C)c(C)o2)c1 | inconclusive: 17.8 µM [inhibitor, partial curve] |  |
| COc1ccc(NC(=O)Cn2nc(C)c3nn(-c4ccc(Cl)cc4)c(C)c3c2=O)cc1 | inconclusive: 22.4 µM [inhibitor, single point] |  |
| O=C(NC(=S)NCc1cccnc1)c1cc2ccccc2o1 |  | inactive: -8.59% |
| CC(N=Cc1ccccc1O)c1ccccc1 (centres undefined) |  | inactive: -2.97% |
| O=C(CCCn1c(=O)oc2ccccc21)N1CCN(c2ccc(F)cc2)CC1 | inconclusive: 7.08 µM [inhibitor, partial curve] |  |
| CCOC(=O)Cn1c(=O)oc2cc(S(=O)(=O)N3CCN(c4ccc(C(C)=O)cc4)CC3)ccc21 | inconclusive: 39.8 µM [inhibitor, single point] |  |
| COc1ccc(/C=N/N2CCN(c3ccccc3OC)CC2)cc1OC | inconclusive: 12.6 µM [inhibitor, partial curve] |  |
| CCOc1ccc(-c2nc(CSCC(=O)NCc3ccco3)c(C)o2)cc1 | inconclusive: 3.16 µM [inhibitor, full curve] |  |
| COc1cccc(Cn2cccc(NC(=O)Nc3ccccc3C)c2=O)c1 | inconclusive: 3.55 µM [inhibitor, full curve] |  |
| CCOC(=O)c1sc(NC(=O)Nc2ccccc2)cc1C | inconclusive: 10 µM [inhibitor, partial curve, poor fit] |  |
| O=C1Nc2ccc([N+](=O)[O-])cc2OC1CCN1CCOCC1 (centres undefined) |  | inactive: -16.1% |
| CCc1ccc(-n2cccc2/C=C2/C(=N)N3C(=NC2=O)SN=C3S(C)(=O)=O)cc1 | inconclusive: 39.8 µM [inhibitor, single point] |  |
| Cc1cc(C)c(NC(=O)c2ncoc2-c2ccco2)c(C)c1 |  | inactive: -9.57% |
| CC(C)NC(=O)C1CCN(C(=O)c2cc3sccc3n2Cc2ccc(Cl)cc2)CC1 | inconclusive: 22.4 µM [inhibitor, single point] |  |
| CC(C)Sc1nc2sc3c(c2c2nnc(SCC(=O)NCc4ccco4)n12)CCCC3 | inconclusive: 28.2 µM [inhibitor, partial curve, poor fit] |  |

| Structure (SMILES) | Potency | activity, negative = inhibition |
| --- | --- | --- |
| C/C(=N\Nc1cccc([N+](=O)[O-])c1)c1cc2ccccc2o1 | inconclusive: 3.16 µM [inhibitor, full curve] |  |
| O=C(N/N=C/c1sc(N2CCCCC2)nc1-c1cccs1)c1cccnc1 | inconclusive: 15.8 µM [inhibitor, partial curve] |  |
| C=CCn1c(SCC(=O)NC23CC4CC(CC(C4)C2)C3)nc2cc(C(=O)O)ccc2c1=O |  | inactive: -7.86% |
| COc1ccc(/C=C/C(=O)c2ccc3ccccc3c2O)cc1CN1CCOCC1 | active: 15.8 µM |  |
| COc1ccc(-c2cc3cc(OC)c(OC)cc3c(C)n2)cc1C | inconclusive: 39.8 µM [inhibitor, single point] |  |
| COc1ccccc1CNC(=O)c1cccc(-c2ccccc2OC)n1 |  | inactive: -12.6% [at 81.4 µM] |
| CCOc1ccc(NC(=O)c2cc3c(=O)n(Cc4cccs4)ccc3nc2C)cc1 | inconclusive: 2.51 µM [inhibitor, partial curve, poor fit] |  |
| O=C(O)CC(NC(=O)C1c2ccccc2Oc2ccccc21)c1ccc(OC2CCCC2)cc1 (centres undefined) | inconclusive: 12.6 µM [inhibitor, partial curve] |  |
| Cc1c(Br)c([N+](=O)[O-])nn1CC(=O)Nc1cccc2nonc12 | inconclusive: 15.8 µM [inhibitor, single point] |  |
| Cc1ccc(-c2noc(CN(C(=O)COc3cc(C)cc(C)c3C)C(C)C)n2)cc1 | inconclusive: 20 µM [inhibitor, single point] |  |
| COc1ccc(-c2noc(CNS(=O)(=O)c3ccc(Br)cc3)n2)cc1OC | inconclusive: 15.8 µM [inhibitor, partial curve] |  |
| C=CCSc1nn2c(=O)c3ccccc3nc2s1 |  | inactive: -16.3% |
| CCOC(=O)c1c(C)[nH]c(CCC(=O)Nc2ccc(Cl)cc2C)c1C |  | inactive: -13.8% |
| Cc1ccc(-c2nc3cccnc3o2)cc1NC(=O)COc1ccc(C(C)(C)C)cc1 | inconclusive: 25.1 µM [inhibitor, partial curve, poor fit] |  |
| C[C@H](NC(=O)c1nc[nH]c1C(=O)NC(c1ccccc1)c1ccccc1)C(=O)OCc1ccccc1 |  | inactive: -4.88% |
| CC(=O)Oc1ccc(/C=C2\N=C(C3CCCCC3)OC2=O)cc1 | inconclusive: 11.2 µM [inhibitor, partial curve] |  |
| Cc1ccc(/C=C/C(=O)N2CCc3ccccc3C2)cc1 | inconclusive: 20 µM [inhibitor, partial curve] |  |
| CC(C)=CCC/C(C)=C/CC/C(C)=C/CSCC(=O)O | inconclusive: 22.4 µM [inhibitor, partial curve] |  |
| CC(=O)Nc1ccc(S(=O)(=O)Nc2nc3ccccc3nc2Nc2cccc(O)c2)cc1 | inconclusive: 15.8 µM [inhibitor, partial curve] |  |
| CO[C@@H]1COC(=O)CC=C[C@@H](C)[C@@H]2C=C[C@@H](O)[C@@H](COC(=O)C/C=C\[C@H]1C)O2 |  | inactive: -0.859% [at 11.5 µM] |
| O=C(O)CCn1c(SCc2cccc3ccccc23)nc2ccccc21 |  | inactive: -18.7% |
| CN(C)c1ncnc2c1NC1=C(S2)C(=NCCCC(=O)O)CC(C)(C)C1 | active: 10 µM |  |
| OCC1CCCN(C(=S)Nc2ccc(Nc3ccccc3)cc2)C1 (centres undefined) | inconclusive: 12.6 µM [inhibitor, partial curve] |  |

| Structure (SMILES) | Potency | activity, negative = inhibition |
| --- | --- | --- |
| COc1ccc(-c2nnc3c4ccccc4c(C)nn23)cc1 | inconclusive: 7.08 µM [inhibitor, partial curve] |  |
| CN(Cc1ccccc1)C(=O)[C@H](Cc1ccc2ccccc2c1)NC(=O)[C@@H]1CCCN1C(=O)Nc1ccccc1[N+](=O)[O-] | inconclusive: 11.2 µM [inhibitor, partial curve, poor fit] |  |
| CCOc1ccc(NC(=O)c2cc(=O)c3ccc(C)c(C)c3o2)cc1 | inconclusive: 0.251 µM [inhibitor, full curve, poor fit] |  |
| CN(C)C(=O)c1ccc2c(c1[N+](=O)[O-])C(=O)c1ccccc1C2=O |  | inactive: -8.78% |
| CCCCCCC(=O)NNC(=O)CC(=O)Nc1ccccc1C(=O)O |  | inactive: -1.97% |
| COc1cccc(CN2CCNC(=O)C2CC(=O)NC2Cc3ccccc3C2)c1 (centres undefined) |  | inactive: -8.2% |
| Cc1ccc(C(F)(F)F)cc1NC(N)=S |  | inactive: -1.85% |
| COc1ccc(S(=O)(=O)N(C)CC(=O)Nc2c(F)cccc2F)cc1 |  | inactive: -14.6% |
| COc1ccccc1NS(=O)(=O)c1cc(NC(C)=O)ccc1N1CCCCC1 |  | inactive: -2% |
| C/C(=C\c1ccccc1)C(=O)Nc1nc2ccc([N+](=O)[O-])cc2s1 | inconclusive: 2.51 µM [inhibitor, full curve] |  |
| O=C(CSc1nnc(-c2ccc([N+](=O)[O-])cc2)o1)Nc1ccccc1 | inconclusive: 20 µM [inhibitor, partial curve] |  |
| Cc1ccc(-c2nc(Cn3c(=O)cc(-c4ccccc4)c4c(C)nn(C)c43)c(C)o2)cc1 |  | inactive: 3.96% |
| COc1ccc(OCCCC(=O)Nc2ccc(N3CCOCC3)cc2)cc1 | inconclusive: 7.94 µM [inhibitor, partial curve] |  |
| COc1ccc(-c2nc(S(=O)(=O)c3ccc(C)cc3)c(N3CCCC3)o2)cc1 | inconclusive: 20 µM [inhibitor, single point] |  |
| CC(C)(c1ccccc1)c1ccc(OCCCN2CCNCC2)cc1 | inconclusive: 6.31 µM [inhibitor, partial curve] |  |
| O=C(C=C1SCCS1)/C=C/c1ccco1 | inconclusive: 28.2 µM [inhibitor, partial curve] |  |
| COc1cccc(NC(=O)Cn2c(CCC(=O)O)ccc2-c2ccccc2)c1 |  | inactive: -17% |
| O=C(COC(=O)c1cccnc1Cl)c1ccccc1 |  | inactive: 1.93% |
| COc1ccc(-n2cc(C(=O)c3cc4ccccc4oc3=O)c(C(C)=O)n2)cc1 | inconclusive: 3.55 µM [inhibitor, full curve] |  |
| CC1CCCN(c2ccc(C(=O)Nc3ccc4c(c3)OCO4)cc2[N+](=O)[O-])C1 (centres undefined) | active: 7.08 µM |  |
| COC(=O)Cn1c(CN2CCN(c3ccc(F)cc3)CC2)nc2c1c(=O)n(C)c(=O)n2C |  | inactive: -5.32% |
| O=C(c1cccs1)n1nc(-c2ccco2)nc1SCc1ccccc1 | inconclusive: 31.6 µM [inhibitor, partial curve] |  |
| CCC(C)NC(=O)C1=CC(c2ccc3c(c2)OCO3)=NS(=O)(=O)N1C (centres undefined) | inconclusive: 7.94 µM [activator, single point] |  |
